In all, about 45,000 compounds went through this assay and about 65 (0.1%) were called active. Calls come from the whole dose curve; as a rule, active = well fitted activation curve with a large enough effect; inconclusive = small, poorly fitted or top-dose-only effect; inactive = no such curve, though single readings can be large or run the other way. The list shows a part of the results.
What follows are compounds tested against Galactocerebrosidase (Homo sapiens) (UniProt P54803) (assay: A Novel Cell-Based Assay to Identify Small Molecules for B -Galactocerebrosidase). Settings: 145M-Twi-hGALC-G270D cells (Twitcher mouse brain line with human GALC G270D), HMU-beta-Gal fluorescence, 48 h; series mostly up to 57.5 µM; activation: at the top concentration.
Sequence of UniProt P54803 (P54803 whole entry, looked up): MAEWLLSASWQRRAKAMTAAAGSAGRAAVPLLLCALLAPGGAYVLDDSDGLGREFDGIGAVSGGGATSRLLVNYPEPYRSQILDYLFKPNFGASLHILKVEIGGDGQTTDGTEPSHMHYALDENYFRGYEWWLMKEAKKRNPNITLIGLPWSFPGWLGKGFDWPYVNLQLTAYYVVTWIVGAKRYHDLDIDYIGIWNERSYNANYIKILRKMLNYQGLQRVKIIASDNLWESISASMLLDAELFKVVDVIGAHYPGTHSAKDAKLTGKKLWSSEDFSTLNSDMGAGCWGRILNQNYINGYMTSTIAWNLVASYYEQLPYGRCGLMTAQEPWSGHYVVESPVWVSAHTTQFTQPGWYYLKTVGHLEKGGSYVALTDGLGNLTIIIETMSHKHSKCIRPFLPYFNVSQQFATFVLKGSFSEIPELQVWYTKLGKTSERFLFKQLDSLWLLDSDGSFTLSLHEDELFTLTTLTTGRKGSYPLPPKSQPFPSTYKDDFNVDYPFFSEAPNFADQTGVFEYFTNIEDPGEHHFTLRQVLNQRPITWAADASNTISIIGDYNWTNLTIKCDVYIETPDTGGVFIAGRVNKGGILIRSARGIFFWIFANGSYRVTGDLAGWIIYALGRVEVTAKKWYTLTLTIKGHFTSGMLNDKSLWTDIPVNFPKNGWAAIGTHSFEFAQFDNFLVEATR
In short: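 Fluorescence readout: HMU-β-gal cleavage by mutant GALC (0.1 mM final, citrate/phosphate pH 5.2 with 1 mg/mL taurocholate), stopped with carbonate/bicarbonate plus Triton X-100. Cells: murine Twitcher 145M-Twi expressing human G270D GALC; qHTS for activators.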
Note: 0% is about no effect; nearly all actives have a fitted effect of over 65% in size.

activation, inactive:
COc1cccc(-c2nc3c(C#N)c[nH]n3c2NC2CCCC2)c1OC -12.3%
Cc1ccc(S(=O)(=O)c2cnc(SCC(=O)Nc3ccc4c(c3)OCCO4)[nH]c2=O)cc1C -11.5%
COC(=O)CN1C(C(=O)c2ccccc2)=C(OC(=O)c2ccc(F)cc2)c2ccccc2S1(=O)=O -3.45%
CCN(C(=O)CSc1nnc(-c2cc3occc3n2C)n1-c1ccccc1C)c1cccc(C)c1 -2.38%
CCCS(=O)c1ccc2nc(NC(=O)OC)[nH]c2c1 (stereo not given) 9.54%
COc1ccc(-c2cn3c(n2)sc2cc(C(=O)NCCCN4CCCCC4)ccc23)cc1 -1.19%
CCOc1ccccc1NC(=O)Cn1c(=O)n(-c2ccccc2)c(=O)c2c1c1cc(C)ccc1n2C 5.29%
COc1ccc(NC(=O)CN2C(=O)CCc3cc(S(=O)(=O)N4CCOCC4)ccc32)c(OC)c1 -5.15%
Cc1nn(CCCC(=O)Nc2cc(C(F)(F)F)ccc2Cl)c(=O)c2c1sc1ccccc12 -4.26%
CCc1nn(CC(=O)N(CC)Cc2ccccc2)c(=O)c2cc3occc3n12 -19.2%
CCN(CC)C(=O)c1cnn(-c2ccc(F)cc2)c1-n1cccc1 -22%
COc1ccc(N2CCN(C(=O)c3ccc4c(=O)n(CCc5ccc(OC)c(OC)c5)c(=O)[nH]c4c3)CC2)cc1 -9.76%
CCNC(=O)c1c(C)oc2ncn(C)c(=O)c12 5.2%
CCc1ccc(CNC(=O)CSc2cc(=O)n(CC)c3ccccc23)cc1 -16.7%
Cc1ccc(-c2cn3c(n2)sc2cc(C(=O)NC4CCCc5ccccc54)ccc23)cc1 (stereo not given) -0.54%
CCOCCCNC(=O)C1CCN(c2cc(C)nc3c(-c4ccc(Cl)cc4)c(C)nn23)CC1 -2.98%
CCc1ccc(NS(=O)(=O)c2ccc3[nH]cc(C(=O)NCc4ccc(C)cc4)c(=O)c3c2)cc1 4.37%
CC(=O)O[C@@H]1C(=O)O[C@@H]2[C@H]1OC(=O)[C@@H]2OC(C)=O -4.37%
CCOc1ccc(-n2c(=O)c3c4c(sc3n(Cc3cccc(C)c3)c2=O)CCCC4)cc1 -8.64%
Clc1ccc2nc(Nc3ccccc3Cl)nc(-c3ccccc3)c2c1 -1.24%
COc1ccc(NC(=O)Cn2c(=O)n(CC(=O)NCCc3ccccc3)c(=O)c3ccccc32)cc1 -6.36%
CC/C(=C(/CC)c1ccc(O)cc1)c1ccc(O)cc1 3.92%
COc1ccc(CNC(=O)c2cc3c(-c4ccccc4F)nn(C)c3s2)cc1 -9.03%
O=C(Nc1ccc(Br)cc1F)C(NS(=O)(=O)c1cccc2nsnc12)c1ccccc1 (stereo not given) -9.93%
Cc1ccc(NC(=O)c2cc3c(-c4ccccc4)nn(-c4ccccc4)c3s2)cc1 -11.1%
COc1ccc(OC)c(NC(=O)c2c(NCc3ccc(OC)c(OC)c3)sc3c2CCC3)c1 -4.75%
CCOc1ccccc1NC(=O)Nc1cc(C(=O)NCc2ccc(C)cc2)ccc1N1CCCC1 -11.3%
Cc1ccccc1Cn1c2ccccc2c2cnn(CC(=O)NCCCc3ccccc3)c(=O)c21 -18.1%
O=C(Cn1c(-c2cccs2)cc2cc(F)ccc21)N1CCN(c2cccc(Cl)c2)CC1 -11.9%
CSc1ccc2c(c1)N(CCC1CCCCN1C)c1ccccc1S2 (stereo not given) -41.8%
COc1cccc(Cc2nc3ccccc3nc2SCC(=O)N2CCN(c3ccccc3)CC2)c1 -2.59%
O=C(Nc1cc(-c2nc3ccccc3o2)ccc1Cl)c1ccc(Br)o1 5.98%
COc1cc(-c2noc(-c3ccc(N(C)C)c([N+](=O)[O-])c3)n2)cc(OC)c1OC 1.68%
Cc1ccc(CCNc2nc3c(S(=O)(=O)c4ccccc4)nnn3c3ccsc23)cc1 -23.4%
Cc1c(C(=O)NCc2ccccc2)sc2nc[nH]c(=O)c12 -8.9%
CCOc1ccc(Nc2sc(C(=O)c3ccc4c(c3)OCO4)c(N)c2S(=O)(=O)c2ccc(C)cc2)cc1 -9.12%
COc1ccccc1CNC(=O)CSc1cc(=O)n(C)c2ccccc12 -17.5%
COc1ccc(-c2cc(C(F)(F)F)nc(NCc3ccc(Cl)cc3)n2)cc1 8.26%
Cn1nc(C(=O)N2CCN(c3ccc(Cl)cc3)CC2)c2c1-c1ccccc1S(=O)(=O)C2 -14.3%
COc1ccc2c(c1)c1c(c(=O)n(-c3ccc(F)c(Cl)c3)c(=O)n1CC(N)=O)n2C -6.9%
CCOc1ccc(-c2c(C)nn3c(C)c(C(=O)NCCc4ccccc4)cnc23)cc1OCC -24.2%
CCC1CN(C(=O)Nc2cccc(OC)c2)c2ccccc2O1 (stereo not given) -1.23%
CC(=O)Nc1ccc(S(=O)(=O)NC2(C(F)(F)F)NC(=O)N(c3ccccc3F)C2=O)cc1 (stereo not given) -14.7%
COc1cccc2c1cc1c(=O)n(CC(=O)O)nc(C)n12 -5.48%
COc1ccc(-n2c(=O)c3ccc(C(=O)NCc4ccc(C)cc4)cc3n(Cc3cccc(Cl)c3)c2=O)cc1 -11.7%
Cc1ccc2c(c1)cc1c(=O)n(Cc3ccc(Cl)cc3)nc(C)n12 -1.75%
COc1cccc(-c2cc(C(=O)Nc3ccc(Br)c(C)c3)[nH]n2)c1 -20.3%
CCOc1ccc(C2C(C(=O)Nc3ccccc3OC)=C(C)Nc3c(C(=O)Nc4cccc(C)c4)cnn32)cc1 (stereo not given) -11.7%
CC1CCCCN1S(=O)(=O)c1cc2c(=O)nc3ccccn3c2cc1Cl (stereo not given) -6.39%
O=C1CC(c2nnc(Cc3cccc(Cl)c3)o2)CN1c1ccccc1 (stereo not given) -8.96%
CCn1c(CC2C(=O)Nc3ccccc32)nc2ccccc2c1=O (stereo not given) -13.2%
Cc1cccc(C)c1NS(=O)(=O)c1ccc2c(c1)[C@H]1C=CC[C@H]1[C@@H](c1ccc(Cl)cc1)N2 -11.8%
COc1ccc(CN(Cc2ccco2)C(=O)c2ccccc2F)cc1 -15.9%
CCOC(=O)c1sc(NC(=O)C(C)Sc2nc(-c3ccccc3)cc(C(F)(F)F)n2)c(C(=O)OC)c1C (stereo not given) 3.29%
CCOc1ccc(C(=O)Nc2ccc(-c3nc4cc(C)ccc4o3)cc2)cc1 14%
CCc1nnc2c3ccccc3nc(Nc3ccccc3OC)n12 -10.5%
Cc1cccc(N2CCN(S(=O)(=O)c3ccc4oc(=O)c5ncn(C)c5c4c3)CC2)c1C -3.51%
O=C(CCCCn1c(=O)c2ccccc2n(CC(=O)Nc2ccccc2)c1=O)NCc1ccccc1Cl -17.3%
CCN(CC)CCCNC(=O)C1CCN(S(C)(=O)=O)CC1 -12%
Cc1c(C)n(Cc2ccccc2)c2ccc(C(=O)NCc3ccc(OC(C)C)cc3)cc12 5.18%
COc1ccc(Nc2nc3ccc(Cl)cc3n3nnnc23)cc1OC -18.8%
Cc1oc(-c2ccc(C(=O)Nc3cccc(C(F)(F)F)c3)cc2)nc1CSc1ccccc1 -14.9%
O=C(Oc1ccccc1Cl)c1cc(-c2ccc3c(c2)OCCO3)on1 -9.17%
CCCC(=O)C1=C(c2ccc(C)cc2)N(C(=O)CCC)n2cnnc2S1 -38.2%
COc1ccc(-c2nc3scc(CCNS(=O)(=O)c4ccc(F)c(C(F)(F)F)c4)n3n2)cc1OC -10.8%
COC(=O)c1scc(-c2ccc(C)cc2)c1S(=O)(=O)Nc1cccc(Cl)c1C -44.8%
Cc1n[nH]c(C)c1CCc1nc2c3ccccc3nc(SCC(=O)Nc3ccc(F)cc3)n2n1 -13.9%
Cc1ccc(OCCn2cc(C(=O)c3ccco3)c3ccccc32)cc1C -12.4%
Cc1ccc(NC(=O)c2cnc(N3CCCCC3)c3ccccc23)cc1Cl -10.3%
O=C(CCCc1nc(-c2ccccc2)no1)Nc1cc(C(F)(F)F)cc(C(F)(F)F)c1 -7.58%
COc1ccc(NC(=O)COc2ccc(S(=O)(=O)NC3CCCCC3)cc2)c(OC)c1 -10.3%
COc1ccc(-c2nc3nc(C)cc(Nc4cccc(C(F)(F)F)c4)n3n2)cc1 -24.5%
Cc1ccc(CNC(=O)Cn2cc(S(=O)(=O)Cc3cccc(Cl)c3)c3ccccc32)cc1 -2.29%
Cc1sc(-n2cccc2)c(C(C)NC(=O)Nc2ccccc2Cl)c1C (stereo not given) -3.7%
CCOc1ccc(NC(=O)c2cc(S(=O)(=O)N3CCCC3)c[nH]2)cc1 -20.7%
CC1=C(C(=O)Nc2ccccc2C)C(c2ccco2)n2ncnc2N1 (stereo not given) -17.3%
Cc1noc(Cn2c(=O)c3ccccc3n(CC(=O)Nc3ccc(F)cc3F)c2=O)n1 25.6%
Cc1cc(C)c(Cn2c3ccccc3c3cnn(CC(=O)NCc4ccc(Cl)cc4)c(=O)c32)c(C)c1 -5.2%
O=C(Nc1nnc(S(=O)(=O)N2CCCCC2)s1)c1ccc(F)cc1 -21.9%
CCOc1ccc(CCNC(=O)c2ccc3c(c2)N(Cc2ccccc2)C(=O)c2ccccc2S3=O)cc1OCC (stereo not given) -7.56%
COc1ccc(-c2c(C#N)c(SCC(=O)Nc3ccc(Br)cc3)nc(C)c2C(=O)Nc2ccccc2)cc1 -18.7%
O=C(CN(c1cc(C(F)(F)F)ccc1Cl)S(=O)(=O)c1ccccc1)NCCc1ccccc1 -6.35%
COC(=O)c1ccccc1NC(=O)c1cc2c(s1)-c1ccccc1OC2 -10.2%
CC1=C(C(=O)N2CCCCC2)C(c2cccc(Cl)c2)n2c(nc3ccccc32)N1 (stereo not given) -41.9%
Cc1cc(C)c(S(=O)(=O)NCCc2cc3ccc(C)cc3[nH]c2=O)c(C)c1 -10.8%
O=C(CSc1nc(-c2ccccc2)c2ccccc2n1)Nc1ccc(F)cc1 -12.2%
Cc1nn2c(=O)cc(COC(=O)c3ccc(NC(=O)COc4ccc(Cl)cc4)cc3)nc2s1 -11.9%
COc1ccc(OC)c(CNC(=O)c2cc3ccc4cccnc4c3[nH]2)c1 -11.2%
CC(C)(C)OC(=O)N1CCC(c2nnc(SCc3ccccc3F)o2)CC1 -25.9%
O=C(Cn1nnc2sc(-c3ccccc3)cc2c1=O)Nc1cccc(C(F)(F)F)c1 -7%
CCOc1ccc(CCNc2ncnc3onc(-c4ccc(Cl)cc4)c23)cc1 -23%
COc1ccc(C)cc1NC(=O)C(=O)NCCc1csc2nc(-c3ccccc3F)nn12 1.35%
O=c1c2oc3ccccc3c2n(Cc2ccccc2)c(=O)n1Cc1ccco1 -4.61%
CC1CCN(S(=O)(=O)c2ccc3nc(NCc4ccc(F)cc4)ccc3c2)CC1 -16.1%
CCn1nnc2cc(C(=O)Nc3ccc(C)cc3Br)ccc21 0.811%
